Experimental data reported in patent US20240124614A1.

B1: hT4VL.FRv40129 (antibody, human IgG1, kappa)
heavy: EVQLVESGGGLVQPGGSLRLSCAASGYTFTSYVMHWVRQAPGKGLEWVSAINPYNDGNYYADSVKGRFTISRDNSRKTLYLQMNSLRAEDTAVYYCARGAYKRGYAMDYWGQGTTVTVSSASTKGPSVFPLAPSSKSTSGGTAALGCLVKDYFPEPVTVSWNSGALTSGVHTFPAVLQSSGLYSLSSVVTVPSSSLGTQTYICNVNHKPSNTKVDKKV[human IgG1 Fc not given here]GSGGGSVTGYRLFEEIL
light: DLVMTQSPSSLSASVGDRVTITCKSSQSLFESRTRKNYLAWYQQKPGKAPKLLIYWASTRESGVPARFSGSGSGTDFTLTISSLEPEDFAVYYCQQYYYHMYTFGQGTKVEIKRTVAAPSVFIFPPSDEQLKSGTASVVCLLNNFYPREAKVQWKVDNALQSGNSQESVTEQDSKDSTYSLSSTLTLSKADYEKHKVYACEVTHQGLSSPVTKSFNRGEC
B2: hT4VL.FRv40164 (antibody, human IgG1, kappa)
heavy: B1 heavy
light: B1 light with E31N, R33D
B3: hT4VL.FRv40168 (antibody, human IgG1, kappa)
heavy: B1 heavy
light: B1 light with E31N, R33H
B4: hT4VL.FRv40146 (antibody, human IgG1, kappa)
heavy: B1 heavy
light: B1 light with E31N, S32D
B5: hT4VL.FRv40147 (antibody, human IgG1, kappa)
heavy: B1 heavy
light: B1 light with E31N, S32E
B6: hT4VL.FRv40170 (antibody, human IgG1, kappa)
heavy: B1 heavy
light: B1 light with E31N, R33K
B7: hT4VL.FRv40533 (antibody, human IgG1, kappa)
heavy: B1 heavy
light: B1 light with E31N, R33S, R35S, Y97E, H100E, M101P
B8: hT4VL.FRv40535 (antibody, human IgG1, kappa)
heavy: B1 heavy
light: B1 light with E31N, R33S, R35S, Q95H, H100Q, M101P
B9: hT4VL.FRv40528 (antibody, human IgG1, kappa)
heavy: B1 heavy
light: B1 light with E31N, S32E, R33K, Y97F, H100E, M101P
B10: hT4VL.FRv40539 (antibody, human IgG1, kappa)
heavy: B1 heavy
light: B1 light with R33S, R35S, Q95Y, H100Q, M101P
B11: hT4VL.FRv40534 (antibody, human IgG1, kappa)
heavy: B1 heavy
light: B1 light with E31N, R33S, R35S, Y97F, H100E, M101P
B12: hT4VL.FRv40537 (antibody, human IgG1, kappa)
heavy: B1 heavy
light: B1 light with E31N, R33S, R35S, Y97E, H100Q, M101P
B13: hT4VL.FRv40532 (antibody, human IgG1, kappa)
heavy: B1 heavy
light: B1 light with E31N, R33S, R35S, Q95Y, H100E, M101P
B14: hT4VL.FRv40520 (antibody, human IgG1, kappa)
heavy: B1 heavy
light: B1 light with K36L, Q95Y, H100E, M101P
B15: hT4VL.FRv40526 (antibody, human IgG1, kappa)
heavy: B1 heavy
light: B1 light with E31N, S32D, R33K, Y97F, H100Q
B16: hT4VL.FRv40518 (antibody, human IgG1, kappa)
heavy: B1 heavy
light: B1 light with R35S, Q95Y, H100E, M101P
B17: hT4VL.FRv40516 (antibody, human IgG1, kappa)
heavy: B1 heavy
light: B1 light with R33V, Y97F, H100E, M101P
B18: hT4VL.FRv40525 (antibody, human IgG1, kappa)
heavy: B1 heavy
light: B1 light with E31N, S32D, R33K, Y97E, H100Q
B19: hT4VL.FRv40513 (antibody, human IgG1, kappa)
heavy: B1 heavy
light: B1 light with R33V, Q95H, H100E, M101P
B20: hT4VL.FRv40519 (antibody, human IgG1, kappa)
heavy: B1 heavy
light: B1 light with K36L, Q95H, H100E, M101P
B21: hT4VL.FRv40515 (antibody, human IgG1, kappa)
heavy: B1 heavy
light: B1 light with R33V, Y97E, H100E, M101P
B22: hT4VL.FRv40512 (antibody, human IgG1, kappa)
heavy: B1 heavy
light: B1 light with R33S, Y97F, H100Q, M101P
B23: hT4VL.FRv40531 (antibody, human IgG1, kappa)
heavy: B1 heavy
light: B1 light with E31N, R33S, R35S, Q95H, H100E, M101P
B24: hT4VL.FRv40524 (antibody, human IgG1, kappa)
heavy: B1 heavy
light: B1 light with E31N, S32D, R33K, Y97F, H100Q, M101P
B25: hT4VL.FRv40538 (antibody, human IgG1, kappa)
heavy: B1 heavy
light: B1 light with E31N, R33S, R35S, Y97F, H100Q, M101P
B26: hT4VL.FRv40514 (antibody, human IgG1, kappa)
heavy: B1 heavy
light: B1 light with R33V, Q95Y, H100E, M101P
B27: hT4VL.FRv40522 (antibody, human IgG1, kappa)
heavy: B1 heavy
light: B1 light with E31N, S32D, R33K, Y97F, H100E, M101P
B28: hT4VL.FRv40536 (antibody, human IgG1, kappa)
heavy: B1 heavy
light: B1 light with E31N, R33S, R35S, Q95Y, H100Q, M101P
B29: hT4VL.FRv40530 (antibody, human IgG1, kappa)
heavy: B1 heavy
light: B1 light with E31N, S32E, R33K, Y97F, H100Q, M101P
B30: hT4VL.FRv40521 (antibody, human IgG1, kappa)
heavy: B1 heavy
light: B1 light with E31N, S32D, R33K, Y97E, H100E, M101P
B31: hT4VL.FRv40527 (antibody, human IgG1, kappa)
heavy: B1 heavy
light: B1 light with E31N, S32E, R33K, Y97E, H100E, M101P
B32: hT4VL.FRv40523 (antibody, human IgG1, kappa)
heavy: B1 heavy
light: B1 light with E31N, S32D, R33K, Y97E, H100Q, M101P
B33: hT4VL.FRv40540 (antibody, human IgG1, kappa)
heavy: B1 heavy
light: B1 light with R33S, R35S, Y97F, H100Q, M101P
B34: hT4VL.FRv40517 (antibody, human IgG1, kappa)
heavy: B1 heavy
light: B1 light with R35S, Q95H, H100E, M101P
B35: hT4VL.FRv40529 (antibody, human IgG1, kappa)
heavy: B1 heavy
light: B1 light with E31N, S32E, R33K, Y97E, H100Q, M101P

biological target: ECM (extracellular matrix); assay: ECL plate assay on coated ECM (Matrigel)

| ECM binding vs Control Ab (pH 5.8) (fold vs Control Ab) | ECM binding vs Control Ab (pH 7.4) (fold vs Control Ab) | Binder |
| --- | --- | --- |
| 59.3 | 6.7 | B1 |
| 12.3 | 1.3 | B2 |
| 97 | 5.1 | B3 |
| 61.6 | 5.3 | B4 |
| 75.8 | 5.6 | B5 |
| 92.9 | 8.5 | B6 |

biological target: ECM (extracellular matrix); assay: ECL plate assay on coated ECM (Matrigel); remark: another data set of the same source

| ECM binding vs Control Ab (pH 5.8) (fold vs Control Ab) | ECM binding vs Control Ab (pH 7.4) (fold vs Control Ab) | Binder |
| --- | --- | --- |
| 2.36 | 0.44 | B7 |
| 2.14 | 0.49 | B8 |
| 18.2 | 2.11 | B9 |
| 10.3 | 1.27 | B10 |
| 1.8 | 0.48 | B11 |
| 2.87 | 0.51 | B12 |
| 6.44 | 0.58 | B13 |
| 7.03 | 2.36 | B14 |
| 15.7 | 2.83 | B15 |
| 8.3 | 1.32 | B16 |
| 6.99 | 0.86 | B17 |
| 24.8 | 2.41 | B18 |
| 3.49 | 0.63 | B19 |
| 4.8 | 1.51 | B20 |
| 11.9 | 0.85 | B21 |
| 8.43 | 1.21 | B22 |
| 1.41 | 0.43 | B23 |
| 26.8 | 3.2 | B24 |
| 3.84 | 0.72 | B25 |
| 13 | 1.23 | B26 |
| 17 | 1.95 | B27 |
| 15.7 | 0.7 | B28 |
| 28.1 | 3.49 | B29 |
| 17.9 | 1.15 | B30 |
| 18.5 | 1.51 | B31 |
| 30.2 | 2.57 | B32 |
| 4.09 | 1.03 | B33 |
| 3.34 | 0.85 | B34 |
| 26.7 | 2.35 | B35 |

Positions count from the first letter of the chain named.
